Experimental data reported in article PMC7501302.
Results are given in words; binding and its absence hold for the method and conditions named. Binding seen in cells or lysates may run through a third protein. Some entries that bind do so weakly or less than the wild type. For some of these results: Tags and fused reporters may be left off the sequences shown.

Amino acid sequences for entries named in this document (tags omitted). A change or cut given only in a name is not applied to a line headed by its entry. Residues count along the entry.
UniProt O95251: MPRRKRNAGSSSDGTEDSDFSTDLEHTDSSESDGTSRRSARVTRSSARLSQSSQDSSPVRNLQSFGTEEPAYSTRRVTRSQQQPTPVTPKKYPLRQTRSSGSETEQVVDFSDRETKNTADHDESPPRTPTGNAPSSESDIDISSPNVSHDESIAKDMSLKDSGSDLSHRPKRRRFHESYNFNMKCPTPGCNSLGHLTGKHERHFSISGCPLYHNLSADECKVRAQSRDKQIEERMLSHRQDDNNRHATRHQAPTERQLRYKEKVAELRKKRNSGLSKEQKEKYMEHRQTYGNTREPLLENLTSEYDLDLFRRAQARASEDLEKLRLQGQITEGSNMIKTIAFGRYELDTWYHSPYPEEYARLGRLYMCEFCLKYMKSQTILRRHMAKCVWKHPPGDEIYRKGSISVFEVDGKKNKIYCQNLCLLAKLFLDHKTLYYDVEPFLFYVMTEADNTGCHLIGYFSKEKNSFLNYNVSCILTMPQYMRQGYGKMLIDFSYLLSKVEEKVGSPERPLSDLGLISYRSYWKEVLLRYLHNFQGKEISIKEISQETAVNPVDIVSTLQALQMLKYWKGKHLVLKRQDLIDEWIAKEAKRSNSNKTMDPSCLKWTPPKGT
GST-KAT7 (1-170aa): residues 1-170 of O95251
GST-KAT7 (171-329aa): residues 171-329 of O95251
GST-KAT7 (330-611aa): residues 330-611 of O95251

Columns and labels:
[1] = target: T1, FLAG-PKD1, expressed in HeLa cells (UniProt Q15139); test: co-IP; lysates of HEK293T, HeLa or H1299 cells in IP lysis buffer (25 mM Tris-HCl pH 7.4, 150 mM NaCl, 1% NP-40, 1 mM EDTA, 5% glycerol); anti-Flag, anti-HA, anti-KAT7 or anti-PKD1 antibody overnight at 4 °C, protein G-Sepharose; western blot
T1 sequence: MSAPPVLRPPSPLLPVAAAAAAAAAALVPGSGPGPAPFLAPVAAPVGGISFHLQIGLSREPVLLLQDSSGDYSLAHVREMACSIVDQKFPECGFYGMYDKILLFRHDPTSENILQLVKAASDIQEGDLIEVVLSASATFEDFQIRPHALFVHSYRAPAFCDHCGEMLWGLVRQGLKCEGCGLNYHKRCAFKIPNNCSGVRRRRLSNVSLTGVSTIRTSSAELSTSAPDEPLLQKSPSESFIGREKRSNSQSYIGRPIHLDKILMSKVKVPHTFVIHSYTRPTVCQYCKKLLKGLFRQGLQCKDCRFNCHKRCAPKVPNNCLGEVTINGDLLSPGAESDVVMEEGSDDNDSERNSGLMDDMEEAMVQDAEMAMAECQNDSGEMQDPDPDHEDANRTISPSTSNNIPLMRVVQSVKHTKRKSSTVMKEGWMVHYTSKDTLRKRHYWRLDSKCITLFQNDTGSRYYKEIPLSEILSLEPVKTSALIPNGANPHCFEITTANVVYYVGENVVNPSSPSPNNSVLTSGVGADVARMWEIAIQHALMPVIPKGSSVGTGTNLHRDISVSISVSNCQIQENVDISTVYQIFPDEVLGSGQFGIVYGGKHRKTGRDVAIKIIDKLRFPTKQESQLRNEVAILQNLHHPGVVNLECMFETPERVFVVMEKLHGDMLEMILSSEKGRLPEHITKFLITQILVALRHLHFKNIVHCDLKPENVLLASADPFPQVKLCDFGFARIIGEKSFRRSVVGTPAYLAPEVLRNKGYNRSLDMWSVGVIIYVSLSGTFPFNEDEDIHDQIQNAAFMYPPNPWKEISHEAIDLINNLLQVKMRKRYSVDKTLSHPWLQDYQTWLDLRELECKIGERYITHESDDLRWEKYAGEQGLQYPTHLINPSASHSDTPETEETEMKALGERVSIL

[2] = target: T2, endogenous PKD1 (human (endogenous in HEK293T, HeLa, H1299)) (UniProt Q15139); test: as above
T2 sequence: T1 sequence

[3] = target: T3, HA-PKD1, expressed in HEK293T cells (UniProt Q15139); test: as above
T3 sequence: T1 sequence

[4] = target: GST-KAT7 (1-170aa) (UniProt O95251); test: pull-down; GST pull-down: GST-KAT7 or its deletion mutants incubated with HEK293T-expressed HA-PKD1; glutathione-sepharose beads
[5] = target: GST-KAT7 (171-329aa) (UniProt O95251); test: as above
[6] = target: GST-KAT7 (330-611aa) (UniProt O95251); test: as above
[7] = target: GST-KAT7 (full-length) (UniProt O95251); test: as above
[8] = target: FLAG-KAT7, expressed in HEK293T cells (UniProt O95251); test: co-IP; lysates of HEK293T, HeLa or H1299 cells in IP lysis buffer (25 mM Tris-HCl pH 7.4, 150 mM NaCl, 1% NP-40, 1 mM EDTA, 5% glycerol); anti-Flag, anti-HA, anti-KAT7 or anti-PKD1 antibody overnight at 4 °C, protein G-Sepharose; western blot
[9] = target: endogenous KAT7 (human (endogenous in HEK293T, HeLa, H1299)) (UniProt O95251); test: as above

Which binding [1] does the source give for “endogenous KAT7 (from UniProt O95251 1-611)” here?
Its binding is “binds”.

What about the binding [2] of the same molecule?
Its binding is “binds”.

Which binding [3] does the source give for “FLAG-KAT7, expressed in HEK293T cells (from UniProt O95251 1-611) (enzyme)” here?
Its binding is “binds”.

B1: HA-PKD1, expressed in HEK293T cells (enzyme, UniProt Q15139 1-912)
chain: T1 sequence
What does the source list for B1?
binding [4]: no binding; binding [5]: binds; binding [6]: binds weakly; binding [7]: binds; binding [8]: binds

B2: endogenous PKD1 (enzyme, UniProt Q15139 1-912)
chain: T1 sequence
How did the binding [8] turn out when B2 was run?
Its binding is “binds”.

What about the binding [9] of the same molecule?
Its binding is “binds”.
